Source: PubChem BioAssay AID1159554 (Broad Institute, 2015)
About 2,100 (2.2%) of roughly 94,000 compounds were called active. Inconclusive results, whose numbers are uncertain, are shown with a selection of clear calls. Cut-off read from the data, not from the text of the source: active = activity change below about -80%; inconclusive = no clear call, values can overlap the other calls; inactive = above that.

Experiment: P. falciparum Dd2 growth inhibitors, primary screen, SYBR Green fluorescence, single dose replicates (AID 1159554)
Details: 72 h, at 10 µM, active compounds read low

Row | Structure (SMILES) | activity change
1 | COc1cccc(S(=O)(=O)N(C)C[C@H]2Oc3cc(C#CCC(C)C)ccc3S(=O)(=O)N([C@@H](C)CO)C[C@@H]2C)c1 | inconclusive: -82.6%
2 | Cc1ccc(S(=O)(=O)NCC[C@@H]2CC[C@@H](NC(=O)c3cccc(F)c3)[C@@H](CO)O2)cc1 | inactive: 12.7%
3 | CO[C@H]1CN(C)C(=O)c2cc(NC(=O)C3CC3)ccc2OC[C@H](C)N(Cc2cccc(F)c2)C[C@H]1C | inconclusive: -84.2%
4 | COc1ccc(NC(=O)N(C)C[C@@H]2OCCCC[C@H](C)Oc3ccc(NC(=O)c4ccccc4)cc3C(=O)N([C@H](C)CO)C[C@@H]2C)cc1 | inconclusive: -81%
5 | O=C(CN1CCOCC1)NCC[C@@H]1CC[C@@H](NS(=O)(=O)c2ccc(Cl)cc2)[C@@H](CO)O1 | inactive: 7.7%
6 | C[C@@H]1CCCCO[C@H](CN(C)C(=O)Nc2ccc(F)cc2)[C@@H](C)CN([C@@H](C)CO)C(=O)c2cc(NC(=O)Nc3ccc(C(F)(F)F)cc3)ccc2O1 | inconclusive: -81.6%
7 | C[C@@H]1CN([C@H](C)CO)C(=O)c2c(c3ccccc3n2C)-c2ccccc2CO[C@H]1CN(C)Cc1cccc(F)c1 | inconclusive: -80%
8 | C[C@@H]1CN([C@@H](C)CO)C(=O)c2cc(NC(=O)Cc3ccccc3)ccc2O[C@@H](C)CCCCO[C@@H]1CN(C)S(=O)(=O)c1ccc(F)cc1 | active: -86.7%
9 | CCS(=O)(=O)N1CCC2(CC1)CN(S(=O)(=O)c1cccc(OC)c1)[C@@H](CO)c1[nH]c3cc(OC)ccc3c12 | inconclusive: -80.8%
10 | O=C(C[C@H]1C=C[C@H](NS(=O)(=O)c2ccccc2)[C@H](CO)O1)N1CCc2ccccc2C1 | inactive: -1.54%
11 | C[C@H]1CCCCO[C@@H](CN(C)C(=O)Nc2ccc(C(F)(F)F)cc2)[C@@H](C)CN([C@@H](C)CO)C(=O)c2cc(NS(=O)(=O)c3ccccc3)ccc2O1 | inactive: -50.7%
12 | COc1cccc(C(=O)Nc2ccc3c(c2)C(=O)N(C)C[C@@H](OC)[C@H](C)CN(CCc2ccccc2)[C@H](C)CO3)c1 | inconclusive: -80.7%
13 | CCCNC(=O)C[C@@H]1CC[C@@H]2[C@@H](COc3ccc(NC(=O)NC(C)C)cc3C(=O)N2C)O1 | inactive: 17.7%
14 | COc1ccc(S(=O)(=O)N(C)C[C@H]2OCCCC[C@H](C)Oc3ccc(NC(=O)Nc4ccc(C(F)(F)F)cc4)cc3C(=O)N([C@H](C)CO)C[C@H]2C)cc1 | inconclusive: -81.9%
15 | C[C@@H]1CN([C@@H](C)CO)C(=O)c2cc(NC(=O)C3CCCCC3)ccc2O[C@H]1CN(C)Cc1ccc(C(=O)O)cc1 | inactive: -3.42%
16 | CCCN(C)C[C@@H]1OCCCC[C@@H](C)Oc2ccc(NC(=O)Nc3cccc4ccccc34)cc2C(=O)N([C@H](C)CO)C[C@@H]1C | inconclusive: -81.5%
17 | CN1C(=O)c2cc(NC(=O)c3ccc4c(c3)OCO4)ccc2OC[C@@H]2O[C@@H](CC(=O)O)CC[C@@H]21 | inconclusive: -81.8%
18 | COc1ccc(C#Cc2ccc([C@H]3[C@@H](CO)N4CCCCN(C(=O)Nc5cccc(F)c5)C[C@H]34)cc2)cc1 | inconclusive: -80%
19 | COc1cccc(-c2ccc([C@H]3[C@H](C#N)N(C(=O)Cc4ccncc4)[C@H]3CO)cc2)c1 | inconclusive: -80.4%

Row | Structure (SMILES) | activity change
20 | O=C(Nc1ccccc1F)N1CCCCN2[C@H](CO)[C@H](c3ccc(/C=C/c4ccccc4)cc3)[C@@H]2C1 | inactive: -3.04%
21 | COc1ccc(S(=O)(=O)Nc2ccc3c(c2)C(=O)N([C@@H](C)CO)C[C@@H](C)[C@H](CN(C)Cc2ccc(C(=O)Nc4ccccc4N)cc2)OCCCC[C@@H](C)O3)cc1 | inconclusive: -80.3%
22 | Cc1noc(C)c1S(=O)(=O)Nc1ccc2c(c1)C(=O)N([C@H](C)CO)C[C@H](C)[C@@H](CN(C)Cc1ccc(C(=O)Nc3ccccc3N)cc1)OCCCC[C@@H](C)O2 | inconclusive: -80.6%
23 | O=C(c1ccccn1)N1CC2(C1)[C@@H](c1ccccc1)[C@H](CO)N2Cc1ccc(Cl)cc1 | inconclusive: -80.5%
24 | COc1ccccc1NC(=O)N1CCCCN2[C@H](CO)[C@H](c3ccc(C#Cc4ccccc4)cc3)[C@@H]2C1 | inconclusive: -80.7%
25 | C[C@@H]1CCCCO[C@@H](CN(C)CC2CCCCC2)[C@@H](C)CN([C@@H](C)CO)C(=O)c2cc(NC(=O)Nc3cccc4ccccc34)ccc2O1 | active: -82.1%
26 | C[C@H](CO)N1C[C@H](C)[C@@H](CN(C)Cc2ccccn2)Oc2ncc(C#CCc3ccccc3)cc2C1=O | inconclusive: -84.7%
27 | CCc1csc(N2[C@H](C#N)[C@H](c3ccccc3-c3ccc(F)cc3)[C@H]2CO)n1 | active: -92.6%
28 | C[C@@H]1CN([C@H](C)CO)C(=O)Cc2cc(NS(C)(=O)=O)ccc2O[C@H]1CN(C)CC1CCCCC1 | inactive: -17.9%
29 | C[C@@H]1CN([C@@H](C)CO)C(=O)c2cc(NC(=O)Nc3ccccc3)ccc2O[C@@H](C)CCCCO[C@@H]1CN(C)Cc1ccc2c(c1)OCO2 | inconclusive: -80.2%
30 | C[C@@H]1CN([C@@H](C)CO)S(=O)(=O)c2ccc(C#CC3CCCC3)cc2O[C@H]1CN(C)C(=O)Cc1ccccc1 | inconclusive: -81.8%
31 | CC(C)NC(=O)N1[C@H](CO)[C@@H](c2ccc(C#CC3CC3)cc2)[C@@H]1C#N | inactive: -32.9%
32 | C[C@H](CO)N1C[C@H](C)[C@@H](CN(C)C(=O)Nc2ccc(-c3ccccc3)cc2)OCc2ccccc2-c2c(n(C)c3ccccc23)C1=O | active: -94.1%
33 | OC[C@@H]1[C@H](c2ccc(-c3cccnc3)cc2)[C@@H]2CN(CC3CC3)CCCCN12 | inactive: -71.8%
34 | C[C@@H]1CN([C@H](C)CO)C(=O)c2cc(NC(=O)Nc3cccc4ccccc34)ccc2O[C@@H](C)CCCCO[C@H]1CN(C)S(=O)(=O)c1ccc(Cl)cc1 | inconclusive: -80.3%
35 | N#C[C@@H]1[C@@H](c2ccccc2-c2ccccc2F)[C@@H](CO)N1C(=O)C1CCOCC1 | inconclusive: -81.6%
36 | CC(C)OC(=O)N(C)C[C@H]1OCc2ccccc2-c2c(n(C)c3ccccc23)C(=O)N([C@H](C)CO)C[C@H]1C | active: -83.3%
37 | CC(C)CC#Cc1ccc2c(c1)O[C@@H](CN(C)S(=O)(=O)c1cccc(F)c1)[C@H](C)CN([C@@H](C)CO)S2(=O)=O | inconclusive: -81.3%
38 | Cc1ccc(S(=O)(=O)N(C)C[C@@H]2OCCCC[C@@H](C)Oc3ccc(NC(=O)Nc4ccccc4)cc3C(=O)N([C@@H](C)CO)C[C@@H]2C)cc1 | active: -90.9%

Row | Structure (SMILES) | activity change
39 | O=C(C1CCC1)N1CC(=O)N2[C@H](CO)[C@@H](c3ccc(C#CCc4ccccc4)cc3)[C@@H]2C1 | active: -85.5%
40 | C[C@H]1CN([C@@H](C)CO)S(=O)(=O)c2ccc(C#Cc3ccccc3)cc2O[C@H]1CN(C)C(=O)Nc1ccc2c(c1)OCO2 | inactive: -77.9%
41 | Cc1ccccc1S(=O)(=O)NCC[C@@H]1CC[C@H](NC(=O)Nc2cccc(Cl)c2)[C@H](CO)O1 | inactive: -5.59%
42 | COc1ccc(CN2CC3(CCN(C(=O)Cc4ccccc4)CC3)c3c([nH]c4cc(OC)ccc34)[C@H]2CO)cc1 | inconclusive: -80.1%
43 | COc1ccccc1CNC(=O)C[C@H]1C[C@@H]2c3cc(NC(=O)Nc4ccc(C(F)(F)F)cc4)ccc3O[C@@H]2[C@@H](CO)O1 | inconclusive: -80%
44 | CN(C)CC(=O)N[C@H]1C=C[C@H](CC(=O)O)O[C@H]1CO | inactive: 25.7%
45 | O=C(C1CC1)N1CC(=O)N2[C@H](C1)[C@@H](c1ccc(C#CCc3ccccc3)cc1)[C@@H]2CO | inconclusive: -81.1%
46 | C[C@@H]1CCCCO[C@H](CN(C)C(=O)Nc2ccc(C(F)(F)F)cc2)[C@H](C)CN([C@@H](C)CO)C(=O)c2cc(NS(=O)(=O)c3cccs3)ccc2O1 | inconclusive: -82.3%
47 | COc1cccc(NC(=O)N(C)C[C@H]2Oc3ncc(C#Cc4ccc(F)cc4)cc3C(=O)N([C@@H](C)CO)C[C@@H]2C)c1 | inactive: -45.6%
48 | CC(C)NC(=O)N1[C@H](C#N)[C@H](c2ccc(-c3ccc(F)cc3)cc2)[C@@H]1CO | inconclusive: -80.6%
49 | CCCNC(=O)N1CC2(C1)[C@@H](c1ccccc1)[C@@H](CO)N2Cc1cccc(F)c1 | inactive: -52.2%
50 | C[C@H]1CCCCO[C@@H](CN(C)Cc2ccc3c(c2)OCO3)[C@@H](C)CN([C@@H](C)CO)C(=O)c2cc(NC(=O)Nc3cccc4ccccc34)ccc2O1 | inconclusive: -82.5%
51 | Cc1cccc(S(=O)(=O)N2CCCCN3[C@@H](CO)[C@@H](c4ccc(C#CC5CC5)cc4)[C@@H]3C2)c1 | inconclusive: -80.9%
52 | C[C@@H]1CN([C@H](C)CO)C(=O)c2cc(NC(=O)CCC(F)(F)F)ccc2O[C@H]1CN(C)S(=O)(=O)c1ccccc1 | inactive: 0.528%
53 | CC(=O)Nc1ccc2c(c1)C(=O)N(C)[C@@H]1CC[C@@H](CC(=O)NCC3CCCCC3)O[C@H]1CO2 | inactive: 15.9%
54 | C[C@@H]1CN([C@H](C)CO)C(=O)c2cc(NC(=O)Nc3ccccc3)ccc2O[C@@H](C)CCCCO[C@@H]1CN(C)CC1CCCCC1 | inconclusive: -80.1%
55 | CCC(=O)N(C)C[C@H]1Oc2cc(-c3cccc(F)c3)ccc2S(=O)(=O)N([C@H](C)CO)C[C@@H]1C | inactive: 1.5%
56 | COc1ccccc1CN1CC2(C1)[C@H](c1ccccc1)[C@H](CO)N2Cc1ccccc1 | inconclusive: -80.8%
57 | Cc1ccc(S(=O)(=O)N(C)C[C@@H]2Oc3c(NC(=O)CCCCCC(=O)Nc4ccccc4N)cccc3C(=O)N([C@@H](C)CO)C[C@@H]2C)cc1 | inconclusive: -80.9%
